{
  "source": "paper PMC4336329",
  "about": "(PLoS ONE, 2015)",
  "note": "About 2,200 (0.71%) of roughly 310,000 compounds showed an effect of 50% or more. Effects have a minus sign here. This is one part of the list.",
  "data": [
    {"molecular_target": "human ether-à-go-go-related gene (hERG) potassium channel (human, UniProt Q12809)", "sequence (Q12809 whole entry, looked up)": "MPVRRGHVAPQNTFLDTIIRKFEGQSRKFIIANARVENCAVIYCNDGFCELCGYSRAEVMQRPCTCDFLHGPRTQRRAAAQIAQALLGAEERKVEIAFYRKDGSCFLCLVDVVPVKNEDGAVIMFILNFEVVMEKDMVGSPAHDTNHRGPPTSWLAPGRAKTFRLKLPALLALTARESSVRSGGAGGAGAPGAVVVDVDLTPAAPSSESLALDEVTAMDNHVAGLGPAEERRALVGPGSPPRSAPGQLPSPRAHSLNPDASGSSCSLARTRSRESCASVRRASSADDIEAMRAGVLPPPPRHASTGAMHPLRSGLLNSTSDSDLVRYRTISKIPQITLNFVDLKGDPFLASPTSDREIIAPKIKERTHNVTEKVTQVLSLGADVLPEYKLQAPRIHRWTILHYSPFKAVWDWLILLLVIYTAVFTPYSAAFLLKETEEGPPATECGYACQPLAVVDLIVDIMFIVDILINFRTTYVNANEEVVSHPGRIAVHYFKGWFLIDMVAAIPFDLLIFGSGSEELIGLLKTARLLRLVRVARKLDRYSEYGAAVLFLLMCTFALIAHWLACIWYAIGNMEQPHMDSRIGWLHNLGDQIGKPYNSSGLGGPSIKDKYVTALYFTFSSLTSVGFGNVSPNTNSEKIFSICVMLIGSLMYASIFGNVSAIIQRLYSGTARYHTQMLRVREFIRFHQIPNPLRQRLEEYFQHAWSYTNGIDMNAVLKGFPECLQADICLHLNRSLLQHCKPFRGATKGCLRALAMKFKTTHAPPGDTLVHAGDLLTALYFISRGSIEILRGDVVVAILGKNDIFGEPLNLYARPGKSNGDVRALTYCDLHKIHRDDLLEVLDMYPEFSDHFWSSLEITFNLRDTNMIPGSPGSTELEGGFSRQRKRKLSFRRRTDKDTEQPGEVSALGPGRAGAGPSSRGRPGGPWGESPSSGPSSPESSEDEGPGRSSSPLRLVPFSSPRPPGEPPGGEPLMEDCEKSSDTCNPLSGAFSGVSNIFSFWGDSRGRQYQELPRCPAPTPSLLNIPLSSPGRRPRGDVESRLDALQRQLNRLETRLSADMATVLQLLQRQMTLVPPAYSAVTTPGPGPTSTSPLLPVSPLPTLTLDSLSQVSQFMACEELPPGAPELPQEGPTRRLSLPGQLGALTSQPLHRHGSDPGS", "test": "primary screen, population patch clamp on CHO cells stably expressing hERG", "units": {"hERG current change (%, negative = inhibition) at 1uM": "%"}, "values": [
      {"smiles": "Cc1cc(NC(=O)c2cc(Cl)ccc2Cl)no1", "hERG current change (%, negative = inhibition) at 1uM": 11.6},
      {"smiles": "Cc1ccccc1OCC(=O)Nc1ccc(Cc2ccncc2)cc1", "hERG current change (%, negative = inhibition) at 1uM": 12},
      {"smiles": "COC(=O)c1ccccc1NC(=S)N(C)C", "hERG current change (%, negative = inhibition) at 1uM": 8.26},
      {"smiles": "O=C1C2C3C=CC(CC3)C2C(=O)N1c1ccccc1", "note": "(stereo not shown)", "hERG current change (%, negative = inhibition) at 1uM": 8.92},
      {"smiles": "CC(C)C(OC(=O)C1CCCO1)C(=O)NC1CCCC1", "note": "(stereo not shown)", "hERG current change (%, negative = inhibition) at 1uM": 3.19},
      {"smiles": "COc1ccc(N(CC(=O)N2CCN(C)CC2)S(C)(=O)=O)cc1OC", "hERG current change (%, negative = inhibition) at 1uM": 10.3},
      {"smiles": "CCN1CCN(CCNC(=O)CSCc2nc(-c3ccc(OC)c(OC)c3)oc2C)CC1", "hERG current change (%, negative = inhibition) at 1uM": 8.51},
      {"smiles": "COc1ccc(N2CCN(C(=O)CNC(=O)c3ccccc3Cl)CC2)cc1", "hERG current change (%, negative = inhibition) at 1uM": 12.4},
      {"smiles": "CC(=O)[O-].Cc1cc(C)c(S(=O)(=O)n2cc(C(C)C([NH3+])C(=O)O)c3ccccc32)c(C)c1", "note": "(stereo not shown)", "hERG current change (%, negative = inhibition) at 1uM": 11.5},
      {"smiles": "C/C(=N\\N(Cc1ccccc1)c1ccccc1)c1cccnc1", "hERG current change (%, negative = inhibition) at 1uM": 9.08},
      {"smiles": "COc1cc(OC)c(C(=O)Nc2ccccc2-c2ccccc2)cc1OC", "hERG current change (%, negative = inhibition) at 1uM": 0.123},
      {"smiles": "COc1ccc(NC(=O)N2CCCCCC2)c(OC)c1", "hERG current change (%, negative = inhibition) at 1uM": 10.7},
      {"smiles": "O=C(CSCc1ccccc1)Nc1ccc(S(=O)(=O)Nc2ncccn2)cc1", "hERG current change (%, negative = inhibition) at 1uM": 6.31},
      {"smiles": "CCC1CCCCN1CCCNC(=O)Cn1c(=O)c2cccn2c2cccnc21", "note": "(stereo not shown)", "hERG current change (%, negative = inhibition) at 1uM": 15.8},
      {"smiles": "COCOc1cc(O)c(C(=O)/C=C/c2ccc(OCOC)c(OCOC)c2)c(OCOC)c1", "hERG current change (%, negative = inhibition) at 1uM": 8.03},
      {"smiles": "O=C(O)C1C2C=CC(O2)C1C(=O)NCCc1cccc(Cl)c1", "note": "(stereo not shown)", "hERG current change (%, negative = inhibition) at 1uM": 15.9},
      {"smiles": "C=CCn1c(SC)nnc1C1COc2ccccc2O1", "note": "(stereo not shown)", "hERG current change (%, negative = inhibition) at 1uM": -7.25},
      {"smiles": "O=C(NCCC(=O)N(Cc1ccco1)Cc1cccs1)c1ccccc1Cl", "hERG current change (%, negative = inhibition) at 1uM": 6.66},
      {"smiles": "CCOC(=O)CSc1ccccn1", "hERG current change (%, negative = inhibition) at 1uM": 12.4},
      {"smiles": "COc1ccc(Cc2nc3ccc(C(=O)N(C)CCn4ccnc4)cc3o2)cc1OC", "hERG current change (%, negative = inhibition) at 1uM": 9.8},
      {"smiles": "CN(C)C(/C=C/Nc1cccc([N+](=O)[O-])c1)=C(C#N)C#N", "hERG current change (%, negative = inhibition) at 1uM": 2.57},
      {"smiles": "O=C(Cc1cccs1)NCC1CCCO1", "note": "(stereo not shown)", "hERG current change (%, negative = inhibition) at 1uM": 12.3},
      {"smiles": "O=C(Cc1cccs1)N/N=C/C(Cl)=C/c1ccccc1", "hERG current change (%, negative = inhibition) at 1uM": 16},
      {"smiles": "CCc1nnc(NC(=O)c2cc(-c3ccccn3)nc3ccc(Br)cc23)s1", "hERG current change (%, negative = inhibition) at 1uM": 9.56},
      {"smiles": "COCCn1c(SCC(=O)NN2C(=O)NC(C)(c3ccccc3)C2=O)nnc1-c1ccncc1", "note": "(stereo not shown)", "hERG current change (%, negative = inhibition) at 1uM": 9.42},
      {"smiles": "Cc1ccc(CC(=O)NCc2ccc(Cl)cc2)cc1", "hERG current change (%, negative = inhibition) at 1uM": 10},
      {"smiles": "Cc1c(-c2nnc(-c3ccc(C(F)(F)F)cc3)o2)cnn1-c1ccccc1", "hERG current change (%, negative = inhibition) at 1uM": 24.5},
      {"smiles": "COC(=O)COc1ccc(S(=O)(=O)NCc2ccc3c(c2)OCO3)cc1C", "hERG current change (%, negative = inhibition) at 1uM": 8.88},
      {"smiles": "O=C(CCCN1C(=O)c2cccc3cccc(c23)C1=O)NCc1cccs1", "hERG current change (%, negative = inhibition) at 1uM": 13.4},
      {"smiles": "COc1cc(C(=O)OCC(=O)NCCN2C(=O)CSC2=O)ccc1OCc1c(C)noc1C", "hERG current change (%, negative = inhibition) at 1uM": 10.4},
      {"smiles": "CCCC1(c2ccccc2)NC(=O)N(CCN2C(=O)c3ccccc3C2=O)C1=O", "note": "(stereo not shown)", "hERG current change (%, negative = inhibition) at 1uM": -3.1},
      {"smiles": "CCN(CC)CCn1c(N)cc(=O)[nH]c1=O", "hERG current change (%, negative = inhibition) at 1uM": -2.3},
      {"smiles": "O=C(O)CCCC(=O)Nc1ccc(Oc2cccc(C(F)(F)F)c2)nc1", "hERG current change (%, negative = inhibition) at 1uM": 14.6},
      {"smiles": "O=C(CNC(=S)N(Cc1ccccc1F)C1CCCCC1)NCCCN1CCOCC1", "hERG current change (%, negative = inhibition) at 1uM": -6.06},
      {"smiles": "Cc1ccc(C)c(S(=O)(=O)N2CCN(CC(=O)NC(=O)NCc3ccco3)CC2)c1", "hERG current change (%, negative = inhibition) at 1uM": -8.25},
      {"smiles": "N#C/C(=C\\c1cn[nH]c1-c1ccccc1Br)C(=O)O", "hERG current change (%, negative = inhibition) at 1uM": 6.43},
      {"smiles": "Cc1ccc(C(=O)NC2CCN(C(=O)Nc3ccc(F)cc3)CC2)cc1", "hERG current change (%, negative = inhibition) at 1uM": 8.68},
      {"smiles": "CCOc1cc2ccccc2cc1C(=O)Nc1ccccn1", "hERG current change (%, negative = inhibition) at 1uM": 9.93},
      {"smiles": "COc1cc(C(=O)NC(=S)Nc2csc(-c3ccc(F)cc3)n2)cc(OC)c1OC", "hERG current change (%, negative = inhibition) at 1uM": 7.5},
      {"smiles": "CC1C/C(=N/NC(=O)c2cccs2)CC(C)(C)C1", "note": "(stereo not shown)", "hERG current change (%, negative = inhibition) at 1uM": 6.43},
      {"smiles": "CCOC(=O)C1CCN(C(=O)CCc2c(C)nc3cc(-c4ccc(OC)cc4OC)nn3c2C)CC1", "hERG current change (%, negative = inhibition) at 1uM": -10.6},
      {"smiles": "CC(=O)Nc1ccc2c(c1)nc1n2CCN(C(C)c2ccccc2)C1", "note": "(stereo not shown)", "hERG current change (%, negative = inhibition) at 1uM": 16.2},
      {"smiles": "CCOC(=O)c1ccc2c(c1)C1C=CCC1C(C(=O)OCC)N2", "note": "(stereo not shown)", "hERG current change (%, negative = inhibition) at 1uM": 7.2},
      {"smiles": "O=C(CSc1nc2ccccc2[nH]1)N1c2ccccc2Sc2ccccc21", "hERG current change (%, negative = inhibition) at 1uM": 13.1},
      {"smiles": "COc1ccc(-c2nc(CS(=O)CC(=O)NCc3ccc4c(c3)OCO4)c(C)o2)cc1OC", "note": "(stereo not shown)", "hERG current change (%, negative = inhibition) at 1uM": 6.47},
      {"smiles": "O=c1c2ccccc2nc2c3ccccc3cnn12", "hERG current change (%, negative = inhibition) at 1uM": -2.4},
      {"smiles": "Cc1occc1C(=O)NCCc1cccc(Cl)c1", "hERG current change (%, negative = inhibition) at 1uM": 8.4},
      {"smiles": "C/C(=N\\NC(=O)c1ccc(OC2CCCC2)cc1)c1ccc(C)s1", "hERG current change (%, negative = inhibition) at 1uM": 7.46},
      {"smiles": "Cc1nc(-c2ccc(Cl)cc2)sc1C(=O)NN", "hERG current change (%, negative = inhibition) at 1uM": 10.9},
      {"smiles": "CC(=O)c1ccc(OCCn2c(SCC(=O)O)nc3ccccc32)cc1", "hERG current change (%, negative = inhibition) at 1uM": 10.1},
      {"smiles": "O=C(CSc1ncnc2scc(-c3ccccc3)c12)N1CCN(Cc2ccc3c(c2)OCO3)CC1", "hERG current change (%, negative = inhibition) at 1uM": 8.81},
      {"smiles": "Cc1ccc(NC(=O)CSCC(=O)NC2CCCCC2)cc1", "hERG current change (%, negative = inhibition) at 1uM": -5.91},
      {"smiles": "O=C(COC(=O)/C=C/c1ccc(Cl)cc1)Nc1ccc2[nH]c(=O)[nH]c2c1", "hERG current change (%, negative = inhibition) at 1uM": 21},
      {"smiles": "COC(=O)c1ccccc1NC(=O)CSc1nc2ccccc2c(=O)[nH]1", "hERG current change (%, negative = inhibition) at 1uM": 15.7},
      {"smiles": "Cc1ccc(Nc2c(-c3ccco3)nc3ccccn23)cc1", "hERG current change (%, negative = inhibition) at 1uM": -27.5},
      {"smiles": "N#C/C(=C\\c1ccccc1)C(=O)Nc1cccnc1", "hERG current change (%, negative = inhibition) at 1uM": 8.08},
      {"smiles": "Cc1ccc(C(=O)NCC(=O)OCC(=O)N(CC(C)C)c2c(N)n(Cc3ccccc3)c(=O)[nH]c2=O)cc1C", "hERG current change (%, negative = inhibition) at 1uM": 20.4},
      {"smiles": "CCCCNC(=S)N1CCN(C(c2ccccc2)c2ccccc2)CC1", "hERG current change (%, negative = inhibition) at 1uM": 12.7}
    ]}
  ]
}
